From PubChem BioAssay AID1030 (National Center for Advancing Translational Sciences (NCATS), 2008)
Screen size: about 220,000 compounds; about 16,000 (7.3%) were called active. Inconclusive means that the source gave no clear call. Such entries were picked first, then a sample of the others. Calls come from the whole dose curve; as a rule, active = well fitted inhibition curve with a large enough effect (not every such curve was filed as active); inconclusive = small, poorly fitted or top-dose-only effect, or another doubt; inactive = no such curve, though single readings can be large or run the other way. Potencies of inconclusive entries are left out as doubtful fits.

molecular target: Aldehyde dehydrogenase 1A1 (Homo sapiens) (UniProt P00352); assay: qHTS Assay for Inhibitors of Aldehyde Dehydrogenase 1 (ALDH1A1); conditions: Purified ALDH1A1, NADH fluorescence, propionaldehyde substrate; series mostly up to 75.3 µM;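 for activity, negative = inhibition: plate controls were no enzyme wells and a reference inhibitor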
Potency is the fitted concentration of half-maximal effect; tags give direction and shape of the fitted curve.

Sequence of UniProt P00352 (P00352 whole entry, looked up): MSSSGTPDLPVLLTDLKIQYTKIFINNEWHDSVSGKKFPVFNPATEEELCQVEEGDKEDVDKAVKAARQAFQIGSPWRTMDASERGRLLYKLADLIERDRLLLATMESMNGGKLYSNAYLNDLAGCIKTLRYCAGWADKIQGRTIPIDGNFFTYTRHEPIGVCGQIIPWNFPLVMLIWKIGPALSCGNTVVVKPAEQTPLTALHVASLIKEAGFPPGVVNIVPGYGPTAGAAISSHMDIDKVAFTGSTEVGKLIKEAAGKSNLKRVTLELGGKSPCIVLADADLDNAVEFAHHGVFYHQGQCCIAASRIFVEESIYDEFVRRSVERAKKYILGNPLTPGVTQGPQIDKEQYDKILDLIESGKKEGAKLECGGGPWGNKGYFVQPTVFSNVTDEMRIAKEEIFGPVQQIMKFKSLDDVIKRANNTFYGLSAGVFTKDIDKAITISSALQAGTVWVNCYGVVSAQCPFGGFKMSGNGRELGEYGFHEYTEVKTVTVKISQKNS

| Compound | Potency | activity, negative = inhibition |
| --- | --- | --- |
| CCc1ccc(CNCCSc2nnnn2C)cc1 | inconclusive [inhibitor, single point] |  |
| COc1ccc(CNC(=S)Nc2cccc(C)c2C)cc1 | inconclusive [inhibitor, partial curve] |  |
| Cc1cc(C(=O)N2CCCC(CCC(=O)N3CCN(c4ccccn4)CC3)C2)c(C)o1 (stereo not drawn) | inconclusive [inhibitor, single point] |  |
| O=C1c2ccccc2-c2ccc(NC(=O)[C@H]3CCCC[C@@H]3C(=O)O)cc21 | inconclusive [inhibitor, partial curve] |  |
| C=CCOc1ccc(CC(=O)O)cc1Cl | inactive |  |
| CCN(CC)CCNC(=O)c1cc2cc(Br)ccc2s1 | inactive |  |
| CCOC(=O)c1cc(C(=O)OCC)c2ccccn2c1=O | inconclusive [inhibitor, partial curve] |  |
| COc1cccc(-n2c(C)nc3c(cnn3-c3ccc(C)cc3)c2=O)c1 | inactive |  |
| CCOC(=O)c1[nH]c2ccccc2c1NC(=O)c1ccc(Br)o1 | inactive |  |
| O=C(Nc1n[nH]c(C(F)(F)F)n1)c1cccs1 | inactive |  |
| Cn1c(Oc2ccc(F)cc2F)c(C=O)c2ccccc21 | inconclusive [inhibitor, partial curve] |  |
| C=CCOC(=O)C(C(C)=O)C(NC(=O)OC)c1ccc2ccccc2c1 (stereo not drawn) |  | inactive: 4.31% [at 13.5 µM] |
| O=C(Nc1ccc(NC(=O)C2CC2)nc1)c1ccco1 | inactive |  |
| Cc1[nH]c2ccccc2c1C(=O)CSC(=S)N1CCCCC1 | inconclusive [inhibitor, partial curve] |  |
| O=C(NCc1ccc2c(c1)OCO2)c1cc(S(=O)(=O)N2CCCCC2)ccc1F | inconclusive [inhibitor, partial curve] |  |
| O=C(CSc1ncnc2c1cnn2Cc1ccccc1)Nc1ccc2c(c1)OCCO2 | active: 12.6 µM |  |
| O=C(NCc1ccccc1C(F)(F)F)C12CN(Cc3ccccc3)CC1C(c1ccc([N+](=O)[O-])cc1)=NO2 (stereo not drawn) | active: 25.1 µM |  |
| Cc1ccc(-c2ccc(/C=C(\C#N)C(=O)Nc3cc(C)nn3-c3ccccc3)o2)cc1 | inactive |  |
| COc1ccc(OCc2nn3c(Cn4cnc5ccccc54)nnc3s2)cc1 | active: 22.4 µM |  |
| COc1cccc(CN(Cc2ccco2)C(c2ccc(F)cc2)c2nnnn2C(C)(C)C)c1 (stereo not drawn) | inconclusive [inhibitor, single point] |  |
| CCn1nnnc1SCC(=O)c1cccc(OC)c1 | inconclusive [inhibitor, single point] |  |
| Cc1cc(C)nc(SCC(=O)Nc2ccc(S(=O)(=O)Nc3onc(C)c3C)cc2)n1 | inactive |  |
| CN1CCc2c(sc3c2C(=O)NC(c2cccs2)N3)C1 (stereo not drawn) | inconclusive [inhibitor, single point] |  |
| CC1CCCN(C(=O)C(C)Sc2nc(-c3ccccc3)cc(C(F)(F)F)n2)C1 (stereo not drawn) | inactive |  |

| Compound | Potency | activity, negative = inhibition |
| --- | --- | --- |
| CC(=O)OC1=C(C#N)Cn2ccc3cccc1c32 | inconclusive [inhibitor, partial curve] |  |
| Cc1ccc(/C=C2/C(=O)N(c3ccccc3)C(=S)N2C)o1 | active: 3.98 µM |  |
| Cc1ccc(S(=O)(=O)NC(C(=O)Oc2ccc3ccc(=O)oc3c2)c2ccccc2)cc1 (stereo not drawn) | inconclusive [inhibitor, partial curve] |  |
| Cc1ccc(NC(=S)NCCO)c(C)c1 | inactive |  |
| Cc1ccc(N2C(SCC(=O)O)=NC(=Nc3cccc(C)c3)C23CCCC3)cc1 | inconclusive [inhibitor, single point] |  |
| CCCSc1nnc2[nH]c(=O)cc(N)n12 | inactive |  |
| O=C(c1ccco1)N(CCC(c1ccccc1)c1ccco1)Cc1ccco1 (stereo not drawn) | active: 3.55 µM |  |
| COC(=O)CN1C(=S)N(c2ccccc2)C(=O)C1CC(=O)Nc1ccc(Cl)cc1 (stereo not drawn) | inconclusive [inhibitor, partial curve] |  |
| COC(=O)Cc1csc(Nc2ccc(Cl)cc2)n1 | inconclusive [inhibitor, single point] |  |
| C=CCN=C1NN=C(c2ccc3c(c2)OCCO3)CS1 | active: 20 µM |  |
| CCCCCc1ccc(CC(=O)Nn2c(C)nc3ccccc3c2=O)cc1 | inconclusive [inhibitor, single point] |  |
| CC1(C)O[C@@H]2O[C@H]([C@H](O)CO/N=C3/[C@H]4O[C@@H]4[C@@H](O)[C@H]4[C@H]3CCn3c(=O)n(-c5ccccc5)c(=O)n34)[C@@H](O)[C@@H]2O1 |  | inactive: 5.96% [at 13.5 µM] |
| COc1cccc(C(=O)N2CCN(Cc3cn[nH]c3-c3ccc(F)cc3F)CC2)c1 | inconclusive [inhibitor, partial curve] |  |
| Cc1nn(Cc2ccccc2)c(Cl)c1C(=O)OC1CCOC1=O (stereo not drawn) | inconclusive [inhibitor, single point] |  |
| c1ccc(CSc2nnc3c4ccccc4c4ccccc4c3n2)cc1 | inconclusive [inhibitor, single point] |  |
| CC(CN(C)C)NC(=O)c1ccc(-n2c(=O)c(=O)[nH]c3ccccc32)cc1 (stereo not drawn) | inactive |  |
| O=C(C1CCN(C2CC(=O)N(c3ccc(Cl)cc3)C2=O)CC1)N1CCOCC1 (stereo not drawn) | active: 12.6 µM |  |
| COc1cc2c3c(c1)/C(=C1/SC(NC(C)=O)=NC1=O)C(=O)N3C(C)(C)C=C2C | inconclusive [inhibitor, single point] |  |
| CCCCC[C@H](O)/C=C/C=C/C/C=C\CCCC(=O)O | inactive |  |
| COc1ccccc1N1CCN(C(=O)C2CCN(S(=O)(=O)c3ccc(C)cc3)CC2)CC1 | inconclusive [inhibitor, single point] |  |
| CCOC(=O)CC1(C)SC(NC(C)=O)=NN1C(C)=O (stereo not drawn) | inconclusive [inhibitor, single point] |  |
| Cc1ccc(NC(=O)CCC(=O)OCC(=O)c2ccc(Oc3ccc([N+](=O)[O-])cc3)cc2)c(C)c1 | active: 22.4 µM |  |
| COCCn1cnnc1SCC(=O)Nc1cccc(S(=O)(=O)N(C)c2ccccc2)c1 | active: 5.62 µM |  |
| COc1ccc(C(=O)NC(=S)N(Cc2ccccc2)Cc2ccccc2)cc1 | inconclusive [inhibitor, single point] |  |
